# Data taken from the supplement of paper PMC3334620.
# In all, about 33,000 sequences were measured (“E-score (-0.5 to 0.5)”: median about -0.012, highest 2% from about 0.29 on). This is one part of the list.
# Molecular target: T1, Ybr033w (UniProt P38073)
# T1 sequence: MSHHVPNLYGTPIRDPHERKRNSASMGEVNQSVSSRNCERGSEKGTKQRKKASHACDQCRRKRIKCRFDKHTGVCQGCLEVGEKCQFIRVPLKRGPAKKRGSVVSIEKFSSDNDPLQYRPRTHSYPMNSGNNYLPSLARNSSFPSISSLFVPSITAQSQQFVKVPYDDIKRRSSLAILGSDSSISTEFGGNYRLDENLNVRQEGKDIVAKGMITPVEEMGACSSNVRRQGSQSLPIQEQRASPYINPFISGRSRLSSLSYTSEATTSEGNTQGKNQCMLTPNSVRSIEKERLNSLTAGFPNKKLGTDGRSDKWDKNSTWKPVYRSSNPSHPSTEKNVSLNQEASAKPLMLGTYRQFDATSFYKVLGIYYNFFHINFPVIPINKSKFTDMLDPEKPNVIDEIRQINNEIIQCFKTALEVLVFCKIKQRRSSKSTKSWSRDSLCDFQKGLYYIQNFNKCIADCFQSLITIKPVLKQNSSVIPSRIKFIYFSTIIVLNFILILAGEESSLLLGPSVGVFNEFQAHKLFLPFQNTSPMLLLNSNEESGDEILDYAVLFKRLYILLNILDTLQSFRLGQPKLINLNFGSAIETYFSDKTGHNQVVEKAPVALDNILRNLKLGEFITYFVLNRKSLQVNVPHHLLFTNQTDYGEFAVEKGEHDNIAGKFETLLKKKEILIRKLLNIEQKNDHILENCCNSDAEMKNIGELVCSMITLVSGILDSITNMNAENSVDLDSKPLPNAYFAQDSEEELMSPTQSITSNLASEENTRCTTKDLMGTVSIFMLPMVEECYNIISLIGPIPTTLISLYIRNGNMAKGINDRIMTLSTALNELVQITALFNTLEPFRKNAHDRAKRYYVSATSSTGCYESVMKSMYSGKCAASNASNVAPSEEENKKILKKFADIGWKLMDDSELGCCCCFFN
# Test: PBM E-score (8-mer binding enrichment) (E-score (-0.5 to 0.5)); higher = stronger / more preferred TF binding; most listed sequences are background and not binding sites
# Details: protein concentration: 200 nM; construct: GST-full length
# Method in brief: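 Using PURExpress in vitro transcription/translation, GST-tagged yeast transcription factors were made in full-length or DNA-binding-domain form. These were applied at about 100-200 nM to double-stranded universal all-10-mer Agilent arrays, and bound protein was detected with fluorescent anti-GST. Scans were normalised with masliner before the Universal PBM Analysis Suite assigned E-scores to ungapped eight-base words pooled with their reverse complements.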
row,Sequence,PBM E-score
1,AGCCAAAA,0.149
2,ACGTCGTC,0.0162
3,CACAATAC,0.0573
4,CTTGGTTC,0.136
5,CGGCATAA,0.106
6,GACTATGA,0.0742
7,CCCAAGTC,-0.203
8,CACAGAAA,0.133
9,CCTCTCAC,-0.13
10,GAAACGCA,-0.0929
11,TTAACCAA,0.176
12,CTGCCTCC,-0.112
13,CTCAGGGC,-0.154
14,AAGCCGGG,-0.142
15,TCCCTACA,-0.0308
16,AAAGGGGC,-0.255
17,GAATACCA,0.0653
18,GTAGGAAC,0.112
19,CGTTGTGA,-0.15
20,ACCCTCTA,-0.135
21,AACGACAC,0.0902
22,ATCCGGAA,0.403
23,ATAGTCCC,-0.159
24,CATCTTTA,0.175
25,AAAATTAT,0.358

row,Sequence,PBM E-score
1,AACTGCGT,-0.00184
2,ACATGGAT,0.108
3,ATCTTCAT,0.088
4,CTTGTTTC,0.129
5,GATGAACA,0.107
6,CCTCGTGC,-0.123
7,ACTCATAG,0.0419
8,GCTTAGCA,-0.00267
9,CAAGCGAC,-0.0723
10,CCTCGGAA,0.209
11,GCACTAGA,0.102
12,ATCAGAGC,0.103
13,CTAGCCCC,-0.203
14,AACGATAG,0.0746
15,ATACGTTA,0.0904
16,TCAACACA,0.164
17,AGTCCAAT,0.0395
18,CTCAATAA,0.12
19,CTCCTCAC,-0.054
20,GTAGTCCA,-0.0115
21,TACCGTAA,-0.0237
22,GCGCGGCA,-0.0206
23,AGGGCACG,-0.185
24,AAAGGGTC,-0.136
25,GCTATCGA,-0.0604

row,Sequence,PBM E-score
1,AATCGTTC,0.0164
2,ATCTGAAG,0.0132
3,AAGTACAG,-0.0133
4,AGTTGATG,0.0527
5,CCTGGGTC,-0.289
6,CGCAGCAA,-0.0433
7,AAATTGCT,0.12
8,ATCCCAAG,-0.014
9,GGGCGCTA,-0.321
10,ACCCACAC,-0.135
11,TGTCTAAA,0.0946
12,ATCTTATC,0.117
13,CGTCCAAG,-0.11
14,GAGGGCGC,-0.214
15,CATAGATG,-0.107
16,GGAGAGCA,-0.225
17,GACGCAGA,-0.127
18,GGAAGGAC,-0.15
19,GAGTTAAA,0.0599
20,GGGACTAC,-0.131
21,CTGATTAA,0.22
22,CTTTTCAC,0.119
23,AATATGCC,0.0284
24,CTTGGTAC,0.158
25,CAGTAATA,0.317

row,Sequence,PBM E-score
1,CGAGCGGA,-0.0451
2,CAATGCAC,-0.0535
3,ACGGGCAG,-0.177
4,CCACAGTA,0.101
5,GAGATTAA,0.182
6,ATTTGTTA,0.185
7,AGAGGCTC,-0.264
8,CATTAATG,0.23
9,ATAATTGG,0.157
10,ATATGAAA,0.284
11,AATATAGT,0.271
12,CTGCAGTC,-0.347
13,TCCGACCA,-0.0213
14,TATCAGAA,0.178
15,ATGAGTTC,-0.077
16,AGACTATG,-0.0137
17,ATAACCGG,-0.215
18,GTATTATA,0.275
19,AAAAAAAT,0.248
20,GAAAACGA,-0.0206
21,CTCAGAGC,-0.191
22,TGGTAACA,0.0318
23,AGAGTAGC,-0.106
24,AAATTACC,0.164
25,GAGAAAAC,0.111

row,Sequence,PBM E-score
1,TTAAATAA,0.264
2,ACAAGGCG,-0.0775
3,TCGCGCAA,0.086
4,ATCCGTAA,0.131
5,CGTGGAGC,-0.215
6,CAGGAATG,-0.00908
7,CGCGCCTA,-0.123
8,GAGCAGAA,-0.142
9,GGATAGGA,-0.0374
10,ACTTGGAT,0.232
11,TGAGTAAA,0.172
12,ACCCGCGA,-0.0162
13,AGATGTCG,-0.001
14,AACTCGGG,-0.185
15,CCTAAGAC,-0.24
16,AGGCGGCA,-0.191
17,GGCAACCC,-0.094
18,CATGGTCG,-0.196
19,AACACATT,0.0531
20,CAACACTA,0.186
21,ACTATGCT,0.117
22,GAAATGGA,-0.0884
23,AGTTGTCG,-0.0295
24,GATGCATC,0.0586
25,AAAGGCCC,-0.105

row,Sequence,PBM E-score
1,AGCATTCA,0.117
2,ATCCATAA,0.189
3,ACGGTAAT,0.0536
4,AGTGATTC,-0.0187
5,ACATCAGA,0.0618
6,CAGTGAAG,0.0193
7,CCCCTGGC,-0.284
8,CGAGATGA,-0.0522
9,AACCTGGC,-0.0474
10,ATCTTGGG,-0.0165
11,GTCCCAAC,-0.194
12,GACTAATC,0.0103
13,GGTCACAA,-0.0218
14,GTAGAGTA,0.105
15,CAAGGTGC,-0.185
16,ACTAATTC,0.221
17,ACCGAATG,-0.0209
18,GCAACACA,-0.127
19,AACCATGT,0.061
20,AGTCTAAC,-0.147
21,AAACGCCG,0.0154
22,GAGAGGGC,-0.383
23,ACCTCTGA,0.0287
24,CCGTCAAG,-0.0253
25,CAACGGGG,-0.22

row,Sequence,PBM E-score
1,ATCACCAT,0.192
2,AACAATAA,0.258
3,CCCAAGGA,-0.0564
4,CTCGCCAC,-0.0478
5,CATTTAAC,0.169
6,ATTCACCG,0.166
7,GTATCGAC,0.0715
8,GTCCTACA,0.015
9,AGCATAAG,0.0555
10,GGACGTTA,0.086
11,ACTTGATC,0.22
12,ATCACATC,0.0917
13,AATCTGTA,0.13
14,GGTATCCA,0.0244
15,AAACATCT,0.087
16,AGTAATCG,0.0662
17,ACATCCTG,0.0592
18,GTTGGTCA,0.106
19,AACTAGCA,0.114
20,AGATCTGC,0.00237
21,AGACTGCT,-0.128
22,GCGTTCCC,-0.237
